The densities may have been worked out from excess volumes.
Experiment: xn = mol fraction of the nth substance listed
Settings: 100 kPa

CO + COCC[N+]1(C)CCCC1.O=S(=O)([N-]S(=O)(=O)C(F)(F)F)C(F)(F)F
x2 = 0
Settings	mass density [kg/m3]
288.15 K	796
293.15 K	791.3
298.15 K	786.6
303.15 K	781.9
308.15 K	777.1
313.15 K	772.3
318.15 K	767.5

COCC[N+]1(C)CCCC1.O=S(=O)([N-]S(=O)(=O)C(F)(F)F)C(F)(F)F + CO
mass density [kg/m3]
Settings	x1 = 0.1	x1 = 0.2001	x1 = 0.3003	x1 = 0.3999	x1 = 0.5008	x1 = 0.6	x1 = 0.6991	x1 = 0.8003	x1 = 0.9002
288.15 K	1098.7	1230.5	1304.9	1350.8	1383.6	1407.7	1425.7	1440.4	1452.1
293.15 K	1093.7	1225.6	1299.9	1345.9	–	–	–	1435.6	1447.3
298.15 K	1088.8	1220.6	1295	1341	1373.8	1398	–	1430.8	–
303.15 K	–	1215.6	1290.1	1336.1	1368.9	1393.2	1411.2	1426	1437.8
308.15 K	–	1210.7	1285.1	–	–	1388.4	1406.4	1421.3	1433.1
313.15 K	1073.9	–	1280.2	1326.3	1359.2	1383.6	1401.7	1416.6	1428.3
318.15 K	1068.9	–	1275.3	1321.4	1354.4	1378.8	–	1411.8	1423.7
